According to PubChem BioAssay AID1460 (National Center for Advancing Translational Sciences (NCATS), 2008):
Hit rate of the full screen: of about 270,000 compounds, about 5,800 (2.1%) were called active. Inconclusive results, whose numbers are uncertain, are shown with a selection of clear calls. Calls follow the shape of the dose curve; as a rule, active = well fitted inhibition curve with a large enough effect; inconclusive = small, poorly fitted or top-dose-only effect; inactive = flat fitted curve, though single readings scatter. Where the call is inconclusive, the potency comes from a doubtful curve fit.

These molecules were tested against Microtubule-associated protein tau (Homo sapiens) (UniProt P10636) (assay: qHTS for Inhibitors of Tau Fibril Formation, Thioflavin T Binding). Conditions: recombinant tau K18 P301L (four-repeat tau fragment), heparin-induced fibrillization, ThT fluorescence; series mostly up to 57.4 µM; activity, negative = inhibition: at the top concentration.
In short: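 Heparin-induced fibrillization of the P301L-mutant K18 repeat-domain fragment of human tau was followed by ThT binding in quantitative high-throughput format.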
% is scaled to controls: 0 for no effect and ±100 for the full control effect; potency is read from the fitted curve at half-maximal effect; tags tell the direction and shape of the fitted curve.
Also: nearly all actives have a fitted effect of over 55% in size.

Chain of UniProt P10636 (P10636 whole entry, looked up, the tested form may be a part): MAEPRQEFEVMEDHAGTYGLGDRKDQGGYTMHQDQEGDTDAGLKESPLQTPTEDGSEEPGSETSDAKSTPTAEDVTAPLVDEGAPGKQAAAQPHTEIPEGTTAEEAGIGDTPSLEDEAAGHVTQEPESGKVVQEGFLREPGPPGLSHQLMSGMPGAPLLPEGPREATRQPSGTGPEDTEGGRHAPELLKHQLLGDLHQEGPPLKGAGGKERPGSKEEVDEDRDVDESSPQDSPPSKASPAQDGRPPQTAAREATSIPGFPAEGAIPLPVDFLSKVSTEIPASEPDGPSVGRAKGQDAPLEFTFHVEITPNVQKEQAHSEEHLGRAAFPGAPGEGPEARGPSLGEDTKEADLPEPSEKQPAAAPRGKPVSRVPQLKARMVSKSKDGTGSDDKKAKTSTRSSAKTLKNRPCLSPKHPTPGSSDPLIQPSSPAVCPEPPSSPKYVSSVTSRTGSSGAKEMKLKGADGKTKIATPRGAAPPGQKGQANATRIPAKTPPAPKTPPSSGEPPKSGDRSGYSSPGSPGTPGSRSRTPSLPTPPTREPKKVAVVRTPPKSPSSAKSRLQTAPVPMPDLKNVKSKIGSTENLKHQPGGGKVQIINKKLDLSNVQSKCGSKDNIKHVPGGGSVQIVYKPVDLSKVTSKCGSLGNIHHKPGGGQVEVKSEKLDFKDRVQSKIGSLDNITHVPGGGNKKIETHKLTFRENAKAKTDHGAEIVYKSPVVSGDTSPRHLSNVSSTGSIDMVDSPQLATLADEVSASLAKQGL

| Compound | Potency | activity, negative = inhibition |
| --- | --- | --- |
| CCc1nn(CC(=O)N2CCN(c3cccc(C)c3)C(C)C2)c(=O)c2cc3sccc3n12 (configuration not stated) | inconclusive: 10 µM [inhibitor, partial curve, poor fit] | – |
| c1ccc(CN2CCC(=NNc3nc4ccccc4[nH]3)CC2)cc1 | inconclusive: 15.8 µM [inhibitor, partial curve] | – |
| NC(=O)CC(NC(=O)Cc1ccc(Br)cc1)c1ccc(NCCOc2ccccc2)c([N+](=O)[O-])c1 (configuration not stated) | inconclusive: 3.98 µM [inhibitor, partial curve] | – |
| CSc1ncccc1C(=O)OCC(=O)Nc1cc(C(F)(F)F)ccc1N1CCOCC1 | inconclusive: 14.1 µM [inhibitor, partial curve] | – |
| c1ccc2c(CNc3ccc(CNc4ncn[nH]4)cc3)cccc2c1 | inconclusive: 14.1 µM [inhibitor, partial curve] | – |
| CC(=O)O[C@H]1CC(C)(C)C(=C=C/C(C)=C/C=C/C(C)=C/C=C/C=C(C)/C=C/C=C(\C)C(=O)C[C@@]23O[C@]2(C)C[C@@H](O)CC3(C)C)[C@](C)(O)C1 | active: 25.1 µM | – |
| N#C/C(=C(/O)c1ccc(-c2cccc([N+](=O)[O-])c2)o1)c1nc2ccccc2s1 | active: 6.31 µM | – |
| CCOC(=O)C1CCCN(Cc2c(Cl)cccc2Cl)C1 (configuration not stated) | – | inactive: -7.72% |
| O=C(O)c1cccc(N/N=C/c2ccc(-c3ccccc3)cc2)c1 | active: 14.1 µM | – |
| CCN(CC)S(=O)(=O)c1cccc(-n2c(O)c(C=Nc3ccccc3C(=O)O)c3ccccc3c2=O)c1 | inconclusive: 28.2 µM [inhibitor, single point] | – |
| Cc1cccc(Nc2c(-c3ccc(N4CCOCC4)cc3)nc3ncccn23)c1 | inconclusive: 39.8 µM [inhibitor, single point] | – |
| CCOC(=O)c1c(-c2ccc(C)cc2)csc1NC(=O)/C(C#N)=C/c1ccc(O)c(OC)c1 | inconclusive: 14.1 µM [inhibitor, partial curve] | – |
| O=C(CC1C(=O)NCCN1Cc1ccc(-c2ccccc2)cc1)NCc1ccncc1 (configuration not stated) | inconclusive: 31.6 µM [inhibitor, single point] | – |
| COc1ccc(NC(=O)CCc2c(C)nn(-c3ccc(N4CCCC4)nn3)c2C)cc1Cl | inconclusive: 17.8 µM [inhibitor, partial curve] | – |
| CCc1ccc(C(=O)c2oc3nc(C)cc(C)c3c2N)cc1 | inconclusive: 25.1 µM [inhibitor, single point] | – |
| O=C(NNc1nc2c(F)cccc2s1)c1cc(=O)c2ccccc2o1 | active: 5.01 µM | – |
| COc1cc2c(cc1NC(=O)c1ccc(C(C)(C)C)cc1)CCCC2 | inconclusive: 2.24 µM [inhibitor, partial curve, poor fit] | – |
| CC(=O)NC1=NC(=O)/C(=C/c2cc(C)n(-c3cccc(C(=O)O)c3)c2C)S1 | inconclusive: 20 µM [inhibitor, partial curve] | – |
| CN1CCN(C2=Cc3ccccc3Sc3cc(F)c(Cl)cc32)CC1 | inconclusive: 35.5 µM [inhibitor, partial curve] | – |
| CCn1c2ccccc2c2cc(NC(=O)CSc3nccc(=O)[nH]3)ccc21 | inconclusive: 17.8 µM [inhibitor, partial curve] | – |
| CCCCCCCC1=Cc2ccccc2C(C(C(C)=O)C(=O)OC)N1C(=O)OC (configuration not stated) | – | inactive: 14.9% [at 11.5 µM] |

| Compound | Potency | activity, negative = inhibition |
| --- | --- | --- |
| CCOC(=O)N1CCc2c(sc(NCc3cc(OC)ccc3OC)c2C(=O)Nc2cc(OC)ccc2OC)C1 | inconclusive: 15.8 µM [inhibitor, partial curve] | – |
| O=C(/C=C/c1ccco1)Nc1ccc(-c2nc3ccccc3[nH]2)cc1 | inconclusive: 20 µM [activator, partial curve] | – |
| COC(=O)c1ccc(N/N=C/c2cc([N+](=O)[O-])cc(OC)c2O)cc1 | inconclusive: 3.16 µM [inhibitor, full curve] | – |
| O=C(NC1CCCCC1)c1ccc(CSc2nc3ccncc3n2Cc2cccc(F)c2)cc1 | inconclusive: 11.2 µM [inhibitor, partial curve] | – |
| Nc1ccc(O)c2c1C(=O)c1ccccc1C2=O | – | inactive: 1.48% |
| CC(=O)c1ccc(-c2ccc(/C=C(/Sc3n[nH]c(C)n3)C(=O)O)o2)cc1 | active: 1 µM | – |
| COc1cccc2cc3c(=O)n(-c4ccccc4)nc-3oc12 | inconclusive: 3.55 µM [inhibitor, full curve] | – |
| COc1ccccc1NC(=O)CCSc1nnc(-c2ccncc2)o1 | inconclusive: 14.1 µM [inhibitor, partial curve] | – |
| O=C(Nc1nc(-c2ccco2)cs1)c1ccccc1 | inconclusive: 15.8 µM [inhibitor, partial curve, poor fit] | – |
| C=CCc1ccc(O)c(-c2ccc(O)c(CC=C)c2)c1 | – | inactive: -13.1% |
| CC1CCN(C(C(=O)NC2CCCCC2)c2cc3c(cc2[N+](=O)[O-])OCO3)CC1 (configuration not stated) | inconclusive: 20 µM [inhibitor, partial curve] | – |
| Clc1ccccc1OCCN1CCCCC1 | – | inactive: -9.41% |
| CCN(CC)S(=O)(=O)c1ccc(C)c(NC(=O)/C=C/c2cccs2)c1 | – | inactive: -1.85% |
| O=C1CSC(=S)N1c1cccnc1 | inconclusive: 22.4 µM [inhibitor, partial curve] | – |
| NC(=O)C1CCN(C2CC(=O)N(c3cccc(F)c3)C2=O)CC1 (configuration not stated) | – | inactive: -9.12% |
| COCCn1c(C)cc(O)c(C(c2ccccc2)N2CCN(c3ccccc3F)CC2)c1=O (configuration not stated) | inconclusive: 22.4 µM [inhibitor, partial curve] | – |
| Cc1cc(C)nc(SCc2ccc(C(=O)N/N=C/c3ccncc3)cc2)n1 | inconclusive: 8.91 µM [inhibitor, full curve, poor fit] | – |
| CCOc1ccccc1OCCCOc1ccc(C)cc1Cl | – | inactive: -18.1% |
| COc1ccc(N2CCN(C(=O)CCNS(=O)(=O)c3ccc(Br)s3)CC2)cc1 | inconclusive: 35.5 µM [inhibitor, single point] | – |
| O=C(CSc1nc2ccccc2o1)N1CCCC1 | – | inactive: -3.67% |
| Cc1cc(C)c(C(=O)/C=C/C=C/c2ccccc2)c(=O)[nH]1 | inconclusive: 28.2 µM [inhibitor, partial curve] | – |
